# Measurements reported in PMC5648805, “Calmodulin dissociates the STIM1-Orai1 complex and STIM1 oligomers” (Nature Communications, 2017).
# Legend:
# [1] = biological target: the molecule itself; experiment: SEC-MALS; 100 μM protein on Superdex 200 10/300, 25 mM Tris-HCl pH 7.5, 200 mM NaCl, 0.5 ml/min
# [2] = biological target: T1, Orai1-CFP (human, UniProt Q96D31 1-301); experiment: FRET or BRET; CFP-YFP index-based FRET, apparent FRET efficiency (Eapp), live HEK293T or HEK Orai1-CFP stable cells, room temperature; resting, after Ca2+ addition or after 1 μM thapsigargin as named; details: partners not purified
# T1 construct: Orai1; the construct Orai1-CFP is not described in the methods; The electrophysiology used CFP-Orai1 and the Ca2+ imaging Cherry-Orai1; source: HEK cells stably expressing Orai1-CFP (gift), or HEK293T, transfected; in live cells; not shown: CFP, C-terminal, kept
# Orai1-CFP, sequence (Q96D31 whole entry): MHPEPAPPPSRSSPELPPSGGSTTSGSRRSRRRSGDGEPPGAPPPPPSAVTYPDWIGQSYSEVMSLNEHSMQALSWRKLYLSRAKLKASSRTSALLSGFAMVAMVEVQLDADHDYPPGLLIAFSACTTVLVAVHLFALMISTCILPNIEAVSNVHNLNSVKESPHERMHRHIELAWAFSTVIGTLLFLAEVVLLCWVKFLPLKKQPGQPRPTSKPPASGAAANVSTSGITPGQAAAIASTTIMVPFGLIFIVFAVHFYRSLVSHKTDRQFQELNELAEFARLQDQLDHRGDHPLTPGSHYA
Binder,stoichiometry N [1],fold increase of FRET Eapp after Ca2+ depletion from the ER [2] [fold]
"SOAR L390S-F391S (LF-SS) mutant, recombinant (domain or fragment, SOAR domain of human STIM1 with L390S and F391S; also called SOAR–LF-SS; source: E. coli, purified (same protocol as SOAR WT); not shown: MBP, N-terminal, cleaved) not shown",2,–
"STIM1-YFP (natural protein, human, STIM1, human, full-length cDNA in pEYFP-C1 between BglII and EcoRI; 685 amino acids; In the STIM1-STIM1 FRET the second copy was STIM1-CFP; also called STIM1-WT; STIM1 WT; source: HEK293T, transfected, in lysate; not shown: YFP, C-terminal, kept) LSHSHSEKATGTSSGANSEESTAAEFCRIDKPLCHSEDEKLSFEAVRNIHKLMDDDANGDVDVEESDEFLREDLNYHDPTVKHSTFHGEDKLISVEDLWKAWKSSEVYNWTVDEVVQWLITYVELPQYEETFRKLQLSGHAMPRLAVTNTTMTGTVLKMTDRSHRQKLQLKALDTVLFGPPLLTRHNHLKDFMLVVSIVIGVGGCWFAYI[skipping about 450 residues]RKKFPLKIFKKPLKK",–,~2
